# Measurements as given in PubChem BioAssay AID504706 (National Center for Advancing Translational Sciences (NCATS), 2011).
# About 200 (0.062%) of roughly 320,000 compounds were called active. This list was built around the results that the source calls inconclusive (neither active nor inactive); the mix of calls is not that of the screen. Calls come from the whole dose curve; as a rule, active = well fitted activation curve with a large enough effect; inconclusive = small, poorly fitted or top-dose-only effect; inactive = no such curve, though single readings can be large or run the other way. Potencies of inconclusive entries are left out as doubtful fits.
# Assay: qHTS assay for re-activators of p53 using a Luc reporter; note: nearly all actives have a fitted effect of over 45% in size
# Conditions: H1299 p53-A138V BP100-luciferase reporter, luminescence, 24 h; series mostly up to 92.2 µM
# Outline: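 p53-null H1299 cells stably carrying temperature-sensitive p53-A138V and a BP100-luciferase reporter were pinned with compounds (4-point, 1:5 series) and held 24 hrs at 37 deg C. Luminescence was read 10 min after detection reagent.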
# Potency is the fitted concentration of half-maximal effect; tags give direction and shape of the fitted curve.
row,Compound,Potency
1,O=C(/C=C/c1ccco1)Nc1cccc(-c2nc3ccccc3[nH]2)c1,"inconclusive [activator, single point]"
2,CN1C2CCC1CC(NS(=O)(=O)c1cc(Cl)c(Cl)cc1Cl)C2 (configuration not stated),"inconclusive [activator, partial curve, poor fit]"
3,O=C(COC(=O)c1ccccn1)c1cccc(Br)c1,inactive
4,CCS(=O)(=O)Nc1ccc(C2=NN(C(=S)Nc3ccccc3)C(c3ccco3)C2)cc1 (configuration not stated),"inconclusive [activator, single point]"
5,O=C(Cc1ccccc1)Nc1ccc2c(c1)OC1(CCCC1)O2,"inconclusive [activator, full curve, poor fit]"
6,CC1CC(C)CN(C(=O)COC(=O)c2ccc3c(c2)OCO3)C1 (configuration not stated),"inconclusive [activator, partial curve, poor fit]"
7,Cc1cccc(C(=O)NCC(=O)N2CCN(c3ccc(Cl)cc3)CC2)c1,inactive
8,COc1cc(NC(=O)c2ccc([N+](=O)[O-])o2)ccc1NC(=O)c1cccs1,"inconclusive [activator, partial curve, poor fit]"
9,CCOC(=O)C1(Cc2ccccc2C(F)(F)F)CCN(C(C)CSC)CC1 (configuration not stated),inactive
10,O=c1[nH]c(N/N=C\c2ccc(F)cc2)nc2ccccc12,"inconclusive [activator, full curve, poor fit]"
11,c1ccc(OCCCc2nc(-c3ccccn3)no2)cc1,"inconclusive [activator, full curve, poor fit]"
12,CC1=C(C(=O)OCC2CCCO2)C(c2ccccc2OC(C)C)C2=C(CC(c3ccco3)CC2=O)N1 (configuration not stated),inactive
13,CC(Oc1ccc2c3c(c(=O)oc2c1)CCCC3)C(=O)NCC1CCC(C(=O)O)CC1 (configuration not stated),inactive
14,Cc1cccc(OCCn2c(=O)sc3ccccc32)c1,"inconclusive [activator, full curve, poor fit]"
15,COc1ccc(/C=C/C(=O)Nc2cccnc2)cc1OC,"inconclusive [activator, partial curve, poor fit]"
16,CCCCn1c(SCC(=O)N(CC)C2CCS(=O)(=O)C2)nc2cc(S(N)(=O)=O)ccc21 (configuration not stated),"inconclusive [activator, single point]"
17,Nc1c(-c2ccc(Cl)cc2)cnn1-c1ccccc1,"inconclusive [activator, full curve, poor fit]"
18,O=C(Cn1c(=O)oc2cc(S(=O)(=O)N3CCCC3)ccc21)N1CCN(C2CCCCC2)CC1,inactive
19,Cc1cccc(-n2nnnc2SCC(=O)Nc2cccc(S(N)(=O)=O)c2)c1,inactive
20,COC(=O)c1ccc(COC(=O)CNC(=O)c2ccc(OC)cc2)cc1,"inconclusive [activator, full curve, poor fit]"
21,O=C(Nn1cnc2ccccc2c1=O)c1ccccc1Cl,"inconclusive [activator, single point]"
22,CCOc1ccc(-c2nnc(SCc3nnc(-c4ccccc4)o3)n2-c2ccccc2F)cc1,"inconclusive [activator, partial curve, poor fit]"
23,CCOc1ccc(NC(=O)c2nccnc2CO)cc1,"inconclusive [activator, full curve, poor fit]"

row,Compound,Potency
1,CCOC(=O)c1c(SCC(=O)Nc2nccs2)nc(C)c(C)c1C,"inconclusive [activator, full curve, poor fit]"
2,O=C(CSCc1ccccc1)N1CCN(c2ccc(F)cc2)CC1,"inconclusive [activator, partial curve, poor fit]"
3,FC(F)(F)c1cccc(N2CCc3cn[nH]c32)c1,"inconclusive [activator, single point]"
4,O=C(c1ccc2c(c1)OCO2)C1CCCN(Cc2cn[nH]c2-c2cccc(F)c2)C1 (configuration not stated),inactive
5,COc1ccc(Nc2nc3ccccc3c(=O)s2)c(OC)c1,inactive
6,Cc1[nH]n(-c2nc(-c3ccccc3F)cc(=O)[nH]2)c(=O)c1CCO,inactive
7,O=S(=O)(c1ccc(S(=O)(=O)N2CCN(Cc3ccccc3)CC2)cc1)N1CCOCC1,inactive
8,COc1ccc(CC(=O)N2CCc3ccccc3C2)cc1,inactive
9,COc1ccc(F)cc1S(=O)(=O)Nc1cc2c3c(c1)CCN3C(=O)CC2,inactive
10,O=C1CC(SCCc2nc3ccccc3[nH]2)C(=O)N1c1ccc(Cl)cc1 (configuration not stated),"inconclusive [activator, single point]"
11,O=C(OCC(=O)N1CCCCCC1)c1cccs1,"inconclusive [activator, partial curve, poor fit]"
12,O=C(CNC(=O)c1ccc2c(c1)OCO2)Nc1ncccc1O,"inconclusive [activator, partial curve, poor fit]"
13,CCOc1cc(N2CCOCC2)c(OCC)cc1NC(=O)COc1cccc2cccnc12,"inconclusive [activator, single point]"
14,OC(COc1ccc2ccccc2c1)CN1CCOCC1 (configuration not stated),"inconclusive [activator, partial curve, poor fit]"
15,COc1ccc(NC(=S)c2ccc(N(C)C)cc2)cc1,"inconclusive [activator, full curve, poor fit]"
16,CCCCCOc1ccc(CSC2=NCCN2)cc1[N+](=O)[O-],"inconclusive [activator, partial curve, poor fit]"
17,Cc1cc(=O)[nH]c(N/N=C/c2sccc2C)n1,"inconclusive [activator, full curve]"
18,COc1ccc(C(=O)NC(=S)N2CCCc3ccccc32)cc1OC,inactive
19,COc1cccc2[nH]c3ccccc3c(=O)c12,"inconclusive [activator, single point]"
20,Cc1ccc(/C=C/C(=O)Nc2nc3ccccc3[nH]2)cc1,"inconclusive [activator, partial curve, poor fit]"
21,COc1cccc(/C=N\NC(=O)c2ccc(Cn3cc(Br)c([N+](=O)[O-])n3)o2)c1O,"inconclusive [activator, single point]"
22,O=C(Nc1cccc([N+](=O)[O-])c1)N1CCCCCC1,"inconclusive [activator, single point]"
23,Cc1c(Cl)ccc2c(C(=O)NCCN3CCCCC3)cc(-c3ccccn3)nc12,inactive

row,Compound,Potency
1,O=C1C2C3C=CC(C3)C2C(=O)N1/N=C/c1ccc(-c2ccccc2[N+](=O)[O-])o1 (configuration not stated),"inconclusive [activator, single point]"
2,O=C(Cc1ccccc1)Nc1nc2ccccc2[nH]1,"inconclusive [activator, partial curve, poor fit]"
3,CC(C)Cn1cc(C(=O)N2CCOCC2)c2c3ccccc3n(C)c2c1=O,inactive
4,COc1cc2c(cc1NC(=O)COC(=O)CNS(=O)(=O)c1ccc(C)cc1)oc1ccccc12,"inconclusive [activator, partial curve, poor fit]"
5,O=C(CCNc1ccccc1)c1ccc2c(c1)OCO2,"inconclusive [activator, partial curve, poor fit]"
6,Cc1ccsc1C(=O)NN=C1CCCCCC1,"inconclusive [activator, partial curve, poor fit]"
7,O=c1c(Br)c(N2CCCC2)cnn1-c1ccccc1,"inconclusive [activator, partial curve, poor fit]"
8,COCCn1c(SCc2nc3ccccc3s2)nc2ccccc21,"inconclusive [activator, partial curve, poor fit]"
9,CC1CCN(c2nc3ccc(C(=O)N4CCN(Cc5ccccc5)CC4)cc3s2)CC1,"inconclusive [activator, partial curve, poor fit]"
10,Cc1onc(-c2ccccc2)c1C(=O)OCC(=O)Nc1cccc(Cl)c1,inactive
11,COc1ccc2c(c1)C1=NN(/C(C)=C\C(C)=O)C(c3ccccc3)C1CC2 (configuration not stated),"inconclusive [activator, partial curve, poor fit]"
12,COC(=O)c1cc2c(=O)n3ccccc3nc2n(C)c1=N,"inconclusive [activator, single point]"
13,COC(=O)c1sccc1NC(=S)N1CCC(C(N)=O)CC1,inactive
14,CCOC(=O)COc1ccccc1C(=O)c1cnn(-c2ccccc2)c1,"inconclusive [activator, single point]"
15,Cc1ccccc1-n1nc(C)c2cc(C(=O)N3CCN(S(=O)(=O)c4ccc(Cl)cc4)CC3)sc21,inactive
16,O=C(COc1ccc2c(c1)OCO2)Nc1ccc(Cl)cn1,"inconclusive [activator, partial curve, poor fit]"
17,Cc1ccccc1/C=C1\Oc2ccccc2C1=O,"inconclusive [activator, partial curve, poor fit]"
18,COC(=O)N/N=C/c1c[nH]c2ccccc12,inactive
19,CN(CCO)c1c2c(nc3cc(-c4cccc(F)c4)nn13)CCCC2,"inconclusive [activator, partial curve, poor fit]"
20,c1cnc(SCCOc2ccc3c(c2)CCC3)nc1,"inconclusive [activator, partial curve, poor fit]"
21,O=C(c1cc2ccccc2oc1=O)N1CCN(c2ncccn2)CC1,"inconclusive [activator, partial curve, poor fit]"
